# Measurements reported in article PMC4336329 (PLoS ONE, 2015).
# Among all 310,000 compounds or so, about 14,000 (4.5%) showed an effect of 50% or more. The effect is printed as a negative number. The list shows a part of the results.
# Target: human ether-à-go-go-related gene (hERG) potassium channel (human, UniProt Q12809)
# Assay: primary screen, population patch clamp on CHO cells stably expressing hERG
# 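Further: peak tail current of the secondary pulse compared with the same well before compound.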
# Chain of human ether-à-go-go-related gene (hERG) potassium channel (Q12809 whole entry, looked up): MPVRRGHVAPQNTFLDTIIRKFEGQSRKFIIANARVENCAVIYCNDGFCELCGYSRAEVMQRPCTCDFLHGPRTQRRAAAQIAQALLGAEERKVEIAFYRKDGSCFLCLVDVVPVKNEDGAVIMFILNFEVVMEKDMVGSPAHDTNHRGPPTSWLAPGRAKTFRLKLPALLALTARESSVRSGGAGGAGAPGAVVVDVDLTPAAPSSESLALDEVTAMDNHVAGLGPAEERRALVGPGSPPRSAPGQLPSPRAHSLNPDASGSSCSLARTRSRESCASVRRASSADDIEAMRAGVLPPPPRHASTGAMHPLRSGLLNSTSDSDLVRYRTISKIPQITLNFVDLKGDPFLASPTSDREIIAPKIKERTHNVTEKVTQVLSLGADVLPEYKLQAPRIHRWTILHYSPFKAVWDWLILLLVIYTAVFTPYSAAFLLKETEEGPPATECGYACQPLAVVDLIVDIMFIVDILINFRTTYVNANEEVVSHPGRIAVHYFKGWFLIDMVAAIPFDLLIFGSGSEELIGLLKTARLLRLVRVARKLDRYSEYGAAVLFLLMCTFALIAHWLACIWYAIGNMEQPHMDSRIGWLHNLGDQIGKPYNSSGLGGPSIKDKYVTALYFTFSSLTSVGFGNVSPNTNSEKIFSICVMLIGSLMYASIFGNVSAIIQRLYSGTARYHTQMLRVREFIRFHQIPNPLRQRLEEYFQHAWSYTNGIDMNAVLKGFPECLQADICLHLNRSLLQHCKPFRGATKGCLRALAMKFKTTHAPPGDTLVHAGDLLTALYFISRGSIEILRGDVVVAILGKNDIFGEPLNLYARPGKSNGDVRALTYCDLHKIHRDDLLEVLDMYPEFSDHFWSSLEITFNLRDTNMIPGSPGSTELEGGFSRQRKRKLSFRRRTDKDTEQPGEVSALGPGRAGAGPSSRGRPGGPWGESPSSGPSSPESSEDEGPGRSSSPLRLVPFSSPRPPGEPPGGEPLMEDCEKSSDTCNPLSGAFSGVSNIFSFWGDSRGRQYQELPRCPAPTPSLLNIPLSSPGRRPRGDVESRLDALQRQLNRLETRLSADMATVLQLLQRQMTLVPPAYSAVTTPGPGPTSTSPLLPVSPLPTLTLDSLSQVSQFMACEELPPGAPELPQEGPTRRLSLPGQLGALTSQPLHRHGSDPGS
row,Compound,"hERG current change (%, negative = inhibition) at 10uM [%]"
1,CC1=NN(C(=O)c2ccccc2Cl)C(O)(c2cccnc2)C1 (stereo not drawn),17.8
2,Cc1cc(NC(=O)Cn2nc(C(F)(F)F)c3c2CCCC3)no1,-0.743
3,C=CCS(=O)(=O)c1cccc2cccnc12,23.8
4,O=C(CSc1cccc(C(F)(F)F)c1)N1CCN(S(=O)(=O)c2ccccc2)CC1,-33.8
5,COCCNC(=O)c1cnn2c(C(F)(F)F)cc(-c3ccc4c(c3)OCO4)nc12,-16.4
6,COc1ccc2c(c1)CCC1C2=NN(/C(C)=C\C(C)=O)C1c1ccc(F)cc1 (stereo not drawn),5.82
7,Cc1nc2ccc(NC(=O)c3cccs3)cc2s1,19.8
8,Brc1cccc(-c2nnc(SCc3ccon3)n2-c2ccccc2)c1,-48.9
9,COc1cc(C(C)=O)ccc1OCC(O)CN1CCN(c2ccc(C)cc2C)CC1 (stereo not drawn),-58.3
10,COc1ccccc1Oc1ccc(NC(=O)Cc2ccccc2)cc1,2.39
11,COc1cc(NS(=O)(=O)c2ccc(NC(=O)c3ccc(S(=O)(=O)N4CCCC4)cc3)cc2)ncn1,26.5
12,O=S(=O)(c1ccc(-c2nnco2)cc1)N1CCCCC1,4.04
13,Cc1ccnc(NC(=O)C2CCN(S(=O)(=O)c3ccc4ccccc4c3)CC2)c1,7.94
14,Cc1nc([N+](=O)[O-])cn1CC(O)c1ccc(Cl)cc1 (stereo not drawn),-2.66
15,CC(C)Cc1nnc(NC(=O)CCC(=O)Nc2ccc(F)cc2)s1,-2.11
16,CC(C)NC(=O)/C(=N\O)c1ccccc1,-2.21
17,Cc1cc(NC(=O)C(C)SCC(=O)OCC(=O)Nc2c(C)cccc2C(C)C)no1 (stereo not drawn),2.9
18,O=[N+]([O-])c1ccc(NCc2ccncc2)cc1,-3.55
19,Cc1cc(C)n(C(C)CC(=O)Nc2ccc3c(c2)OCCO3)n1 (stereo not drawn),-1

row,Compound,"hERG current change (%, negative = inhibition) at 10uM [%]"
1,CC(=O)c1cc(F)c(N2CCN(C(=O)Cc3ccccc3)CC2)cc1C,-11.5
2,Cc1cccc(-c2cc3nc(C)cc(NCCCN(C)C)n3n2)c1,-38.1
3,COc1cccc(CNC(=O)c2nnn(CC(=O)Nc3cc(Cl)ccc3C)c2N)c1,10.4
4,Cc1ccccc1-c1cc(C(=O)N2CCCC2)c2ccccc2n1,-47.9
5,OCc1nnn(-c2ccccc2)c1CO,14.3
6,CC(CCC(=O)O)C1CCC2C3C(O)CC4CC(O)CCC4(C)C3CC(O)C12C (stereo not drawn),4.66
7,Nc1ccccc1Nc1nc2ccccc2[nH]1,-6.13
8,CC(C)(C)OC(=O)n1cc(CCO)c2ccccc21,-3.4
9,O=C(Nc1sc2c(c1C(=O)NCCCO)CCCC2)c1ccccc1,-11.6
10,Cc1cc(C)cc(NC(=O)NNC(=O)c2cc3occc3[nH]2)c1,13
11,COC(=O)c1ccc2c(=O)n(CCN3CCOCC3)c(SCC(=O)C(C)(C)C)nc2c1,-34.4
12,COC(=O)C1=C(N)Oc2cc(C)[nH]c(=O)c2C1c1cccnc1 (stereo not drawn),-3.87
13,CCOC(=O)c1c(NC(=O)c2cc(C)on2)c2cc([N+](=O)[O-])ccc2n1C,25.9
14,Cc1ccc(OCCOc2ccc(S(=O)(=O)N3CCCC3)cc2C(N)=O)cc1,-6.6
15,CC(C)N(C)Cc1nnnn1CC(=O)NCc1cc(F)cc(C(F)(F)F)c1,14.5
16,Cc1c(C(=O)N(C)c2ccccc2Cl)cnn1-c1ccccc1,-8.8
17,CC(C)Cc1nc(SCC(=O)NCc2ccccc2)n[nH]1,10.7
18,O=C(CC1C(=O)NCCN1Cc1ccc(F)cc1Cl)NCc1ccon1 (stereo not drawn),10.8
19,Cc1cc([N+](=O)[O-])nn1CC(=O)N1c2ccccc2CC1C (stereo not drawn),-10.2

row,Compound,"hERG current change (%, negative = inhibition) at 10uM [%]"
1,O=C(c1ccc(Cl)cc1)N1CCCCC(Sc2nnc(-c3ccc4c(c3)OCO4)o2)C1=O (stereo not drawn),14.6
2,COc1ccc2c(c1)CCc1c(C(=O)N3CC4(C)CC3CC(C)(C)C4)noc1-2 (stereo not drawn),-5.94
3,CCC(C)[C@H](NC(=O)C1CC(=O)N(c2ccc(OC)cc2)C1)C(=O)N1CCCCC1 (stereo partly drawn),18.7
4,c1cncc(-c2nc(-c3ccc4c(c3)OCO4)cs2)c1,7.57
5,O=c1[nH]cc(S(=O)(=O)NCc2ccccc2)c(=O)[nH]1,18.4
6,O=C(CN(c1cccc([N+](=O)[O-])c1)S(=O)(=O)c1ccccc1)N1CCCCC1,-24.8
7,COc1ccc(OC)c(Cc2nnc(CCC(=O)NC3CCCC3)o2)c1,6.95
8,CC1=C/C(=N\NC(=O)c2cccs2)CC(C)(C)C1,11.5
9,C/C(Cl)=C\Cn1c(N2CCCC2)nc2c1c(=O)[nH]c(=O)n2C,-20.4
10,O=C(NNc1c(F)c(F)cc(F)c1F)c1ccc(Cl)nc1,25.2
11,CC/C(=N\NC(=O)c1nnn(-c2nonc2N)c1CN(C)c1ccccc1)c1ccccc1,11.4
12,CCC(=O)c1cn(CCOc2ccccc2OC)c2ccccc12,20.3
13,CNC(=O)CS(=O)CC(=O)Nc1cc(OC(C)C)c(Cl)cc1Cl (stereo not drawn),16.5
14,COc1ccc(N2CCN(CC(=O)N3c4ccccc4CC3C)CC2)cc1.O=C(O)C(=O)O (stereo not drawn),-21.3
15,CCc1sc(C(=O)Nc2cccc(-n3cnnn3)c2)cc1C,-4.05
16,Cc1ccc(N(CC(=O)NCC2CCCO2)C(=O)CCC(=O)Nc2cc(C)on2)cc1 (stereo not drawn),9.1
17,NC(=O)c1c(NC(NC(=O)c2ccco2)C(=O)c2ccc(Cl)cc2)sc2c1CCCC2 (stereo not drawn),-20.4
18,O=C(COC(=O)c1ccncc1)Nc1ccccc1,12.9
19,C=Cn1cc[n+](CC(=O)C(C)(C)C)c1.[Br-],8.71
